B1: TPP-2148: anti-TWEAKR human IgG1; heavy chain SEQ ID NO: 32, light chain SEQ ID NO: 31 (antibody, listed as Homo Sapiens)
heavy: EVQLLESGGGLVQPGGSLRLSCAASGFTFSPYPMMWVRQAPGKGLEWVSYISPSGGKTHYADSVKGRFTISRDNSKNTLYLQMNSLRAEDTAVYYCARGGDTYFDYFDYWGQGTLVTVSS[human IgG1 constant region not shown]
light: DIQMTQSPATLSASVGDRVTITCRASQSISSYLNWYQQKPGKAPKLLIYQASSLQSGVPSRFSGSGSGTDFTLTISSLQPEDFATYYCQQSYTSPFITFGPGTKVEIKRTVAAPSVFIFPPSDEQLKSGTASVVCLLNNFYPREAKVQWKVDNALQSGNSQESVTEQDSKDSTYSLSSTLTLSKADYEKHKLYACEVTHQGLSSPVTKSFNRGEC
B2: TPP-2093: anti-TWEAKR human IgG1; heavy chain SEQ ID NO: 22, light chain SEQ ID NO: 21 (antibody, listed as Homo Sapiens)
heavy: EVQLLESGGGLVQPGGSLRLSCAASGFTFSPYPMMWVRQAPGKGLEWVSYISPSGGSTHYADSVKGRFTISRDNSKNTLYLQMNSLRAEDTAVYYCARGGDTYFDYFDYWGQGTLVTVSS[human IgG1 constant region not shown]
light: DIQMTQSPSSLSASVGDRVTITCRASQSISSYLNWYQQKPGKAPKLLIYQASSLQSGVPSRFSGSGSGTDFTLTISSLQPEDFATYYCQQSYTSPFITFGQGTKVEIKRTVAAPSVFIFPPSDEQLKSGTASVVCLLNNFYPREAKVQWKVDNALQSGNSQESVTEQDSKDSTYSLSSTLTLSKADYEKHKVYACEVTHQGLSSPVTKSFNRGEC
B3: TPP-2149: anti-TWEAKR human IgG1; heavy chain SEQ ID NO: 12, light chain SEQ ID NO: 11 (antibody, listed as Homo Sapiens)
heavy: EVQLLESGGGLVQPGGSLRLSCAASGFTFSPYPMIWVRQAPGKGLEWVSYISPSGGKTHYADSVKGRFTISRDNSKNTLYLQMNSLRAEDTAVYYCARGGDTYFDYFDYWGQGTLVTVSS[human IgG1 constant region not shown]
light: DIQMTQSPATLSASVGDRVTITCRASQSISGYLNWYQQKPGKAPKLLIYQASSLQSGVPSRFSGSGSGTDFTLTISSLQPEDFATYYCQQSYTSPFITFGPGTKVEIKRTVAAPSVFIFPPSDEQLKSGTASVVCLLNNFYPREAKVQWKVDNALQSGNSQESVTEQDSKDSTYSLSSTLTLSKADYEKHKLYACEVTHQGLSSPVTKSFNRGEC

Target: T1, TWEAKR protein (TPP-2305) (Homo sapiens, UniProt Q9NP84)
T1 construct: TPP-2305; hTNFRSF12Aaa28-80; Human; 30R-AT080; 168; purchased Fitzgerald Inc 30R-AT080
Assay: Biacore monovalent KD with TWEAKR protein
Details: first order 1:1 binding model
Experimental: Binding affinities of anti-TWEAKR antibodies were determined by surface plasmon resonance analysis on a Biacore T100 instrument (GE Healthcare Biacore, Inc.). Antibodies were immobilized onto a CM5 sensor chip through an indirect capturing reagent, anti-human IgG(Fc). Reagents from the “Human Antibody Capture Kit” (BR-1008-39, GE Healthcare Biacore, Inc.) were used as described by the manufacturer. Anti-TWEAKR antibodies were injected at a concentration of 10 μg/ml at 10 μl/min for 10 sec.
Sensorgrams were generated after in-line reference cell correction followed by buffer sample subtraction. The dissociation equilibrium constant (KD) was calculated based on the ratio of association (kon) and dissociation rated (koff) constants, obtained by fitting sensorgrams with a first order 1:1 binding model.

Molecule	ka [M⁻¹ s⁻¹]	kd [s⁻¹]
B1	5.1e+06	0.13
B2	4.1e+06	0.09
B3	8.4e+06	0.1

Source: patent US20160237160A1, “ANTI-TWEAKR ANTIBODIES AND USES THEREOF” (BAYER PHARMA AKTIENGESELLSCHAFT, priority 2013, published 2016)
